From article PMC9911399, “Two distinct binding modes provide the RNA-binding protein RbFox with extraordinary sequence specificity”
Changes are numbered by the printed parent chain; changes in the protein carry UniProt numbers. This is one part of the list.

B1: UUACUAU (DNA:RNA)
RNA: GGGAGACCGGAAUUCAGAUUGUCCUUACUAUUUAAAUCCCGUCGUAGCCACCA
DNA 1: CAATCTGAATTCCGGTCTCCC
DNA 2: TGGTGGCTACGACGGGATT
B2: AGGCCGA (DNA:RNA)
RNA: B1 RNA with U25A, U26G, A27G, U29C, A30G, U31A
DNA 1: CAATCTGAATTCCGGTCTCCC
DNA 2: TGGTGGCTACGACGGGATT
B3: UGGCCAG (DNA:RNA)
RNA: B1 RNA with U26G, A27G, U29C, U31G
DNA 1: CAATCTGAATTCCGGTCTCCC
DNA 2: TGGTGGCTACGACGGGATT
B4: AAAGGGG (DNA:RNA)
RNA: B1 RNA with U25A, U26A, C28G, U29G, A30G, U31G
DNA 1: CAATCTGAATTCCGGTCTCCC
DNA 2: TGGTGGCTACGACGGGATT
B5: UCGCACC (DNA:RNA)
RNA: B1 RNA with U26C, A27G, U29A, A30C, U31C
DNA 1: CAATCTGAATTCCGGTCTCCC
DNA 2: TGGTGGCTACGACGGGATT
B6: CUCGUCG (DNA:RNA)
RNA: B1 RNA with U25C, A27C, C28G, A30C, U31G
DNA 1: CAATCTGAATTCCGGTCTCCC
DNA 2: TGGTGGCTACGACGGGATT
B7: GCUUAGC (DNA:RNA)
RNA: GGGAGACCGGAAUUCAGAUUGUCCGCUUAGCUUAAAUCCCGUCGUAGCCACCA
DNA 1: CAATCTGAATTCCGGTCTCCC
DNA 2: TGGTGGCTACGACGGGATT
B8: GGACGGU (DNA:RNA)
RNA: B1 RNA with U25G, U26G, U29G, A30G
DNA 1: CAATCTGAATTCCGGTCTCCC
DNA 2: TGGTGGCTACGACGGGATT
B9: GGAUGCU (DNA:RNA)
RNA: B7 RNA with C26G, U27A, A29G, G30C, C31U
DNA 1: CAATCTGAATTCCGGTCTCCC
DNA 2: TGGTGGCTACGACGGGATT
B10: GCAAUUU (DNA:RNA)
RNA: B1 RNA with U25G, U26C, C28A, A30U
DNA 1: CAATCTGAATTCCGGTCTCCC
DNA 2: TGGTGGCTACGACGGGATT
B11: GGCCCGA (DNA:RNA)
RNA: B7 RNA with C26G, U27C, U28C, A29C, C31A
DNA 1: CAATCTGAATTCCGGTCTCCC
DNA 2: TGGTGGCTACGACGGGATT
B12: GUUUAGU (DNA:RNA)
RNA: B7 RNA with C26U, C31U
DNA 1: CAATCTGAATTCCGGTCTCCC
DNA 2: TGGTGGCTACGACGGGATT
B13: AUAUUUA (DNA:RNA)
RNA: B1 RNA with U25A, C28U, A30U, U31A
DNA 1: CAATCTGAATTCCGGTCTCCC
DNA 2: TGGTGGCTACGACGGGATT
B14: CUAUUAU (DNA:RNA)
RNA: B1 RNA with U25C, C28U
DNA 1: CAATCTGAATTCCGGTCTCCC
DNA 2: TGGTGGCTACGACGGGATT
B15: AGGGGGU (DNA:RNA)
RNA: B7 RNA with G25A, C26G, U27G, U28G, A29G, C31U
DNA 1: CAATCTGAATTCCGGTCTCCC
DNA 2: TGGTGGCTACGACGGGATT
B16: GGAACGA (DNA:RNA)
RNA: B7 RNA with C26G, U27A, U28A, A29C, C31A
DNA 1: CAATCTGAATTCCGGTCTCCC
DNA 2: TGGTGGCTACGACGGGATT
B17: AUACGCC (DNA:RNA)
RNA: B1 RNA with U25A, U29G, A30C, U31C
DNA 1: CAATCTGAATTCCGGTCTCCC
DNA 2: TGGTGGCTACGACGGGATT
B18: GUAUGGA (DNA:RNA)
RNA: B7 RNA with C26U, U27A, A29G, C31A
DNA 1: CAATCTGAATTCCGGTCTCCC
DNA 2: TGGTGGCTACGACGGGATT
B19: UAUGCCU (DNA:RNA)
RNA: B1 RNA with U26A, A27U, C28G, U29C, A30C
DNA 1: CAATCTGAATTCCGGTCTCCC
DNA 2: TGGTGGCTACGACGGGATT
B20: UAGUCCC (DNA:RNA)
RNA: B7 RNA with G25U, C26A, U27G, A29C, G30C
DNA 1: CAATCTGAATTCCGGTCTCCC
DNA 2: TGGTGGCTACGACGGGATT
B21: UCGAAAU (DNA:RNA)
RNA: B1 RNA with U26C, A27G, C28A, U29A
DNA 1: CAATCTGAATTCCGGTCTCCC
DNA 2: TGGTGGCTACGACGGGATT
B22: GCGAUGU (DNA:RNA)
RNA: B7 RNA with U27G, U28A, A29U, C31U
DNA 1: CAATCTGAATTCCGGTCTCCC
DNA 2: TGGTGGCTACGACGGGATT
B23: CGUUGUG (DNA:RNA)
RNA: B7 RNA with G25C, C26G, A29G, G30U, C31G
DNA 1: CAATCTGAATTCCGGTCTCCC
DNA 2: TGGTGGCTACGACGGGATT
B24: CGGUAGG (DNA:RNA)
RNA: B7 RNA with G25C, C26G, U27G, C31G
DNA 1: CAATCTGAATTCCGGTCTCCC
DNA 2: TGGTGGCTACGACGGGATT
B25: ACGUCGA (DNA:RNA)
RNA: B7 RNA with G25A, U27G, A29C, C31A
DNA 1: CAATCTGAATTCCGGTCTCCC
DNA 2: TGGTGGCTACGACGGGATT
B26: CGACCGG (DNA:RNA)
RNA: B1 RNA with U25C, U26G, U29C, A30G, U31G
DNA 1: CAATCTGAATTCCGGTCTCCC
DNA 2: TGGTGGCTACGACGGGATT
B27: CUGUUUA (DNA:RNA)
RNA: B1 RNA with U25C, A27G, C28U, A30U, U31A
DNA 1: CAATCTGAATTCCGGTCTCCC
DNA 2: TGGTGGCTACGACGGGATT
B28: GAUGAUG (DNA:RNA)
RNA: B7 RNA with C26A, U28G, G30U, C31G
DNA 1: CAATCTGAATTCCGGTCTCCC
DNA 2: TGGTGGCTACGACGGGATT
B29: AUGGAAC (DNA:RNA)
RNA: B7 RNA with G25A, C26U, U27G, U28G, G30A
DNA 1: CAATCTGAATTCCGGTCTCCC
DNA 2: TGGTGGCTACGACGGGATT
B30: CGUCGUA (DNA:RNA)
RNA: B7 RNA with G25C, C26G, U28C, A29G, G30U, C31A
DNA 1: CAATCTGAATTCCGGTCTCCC
DNA 2: TGGTGGCTACGACGGGATT
B31: AAGAGAC (DNA:RNA)
RNA: B7 RNA with G25A, C26A, U27G, U28A, A29G, G30A
DNA 1: CAATCTGAATTCCGGTCTCCC
DNA 2: TGGTGGCTACGACGGGATT

molecular target: T1, RBFOX1 RRM (Homo sapiens, UniProt Q9NWB1 109-208); assay: EMSA; HiTS-Eq, 1 nM pool, 10 min; buffer printed only for the single-RNA assays: 10 mM Tris pH 7.5, 150 mM NaCl, 3.4 mM EDTA, 0.001% NP-40, 30 C; conditions: tags: His6 N-terminal (pET28a); label: 5' 32P
T1 sequence: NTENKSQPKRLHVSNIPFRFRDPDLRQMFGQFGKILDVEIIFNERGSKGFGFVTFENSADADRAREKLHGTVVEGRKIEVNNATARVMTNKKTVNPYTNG
Outline: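 Purified RbFox RRM (wild type or mutant) was equilibrated for 10 min in 50 µL with 1 nM of a 5′-radiolabelled pool of RNA with 7 randomized nucleotides, its flanks annealed to DNA oligonucleotides, across increasing protein concentrations. Free RNA was separated by 8% native PAGE, excised, reverse-transcribed, PCR-barcoded and sequenced on an Illumina HiSeq 2500. Relative association constants came from read-count changes of each variant against the control reaction, normalised to the cognate motif.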

| Binder | binding signal |
| --- | --- |
| B1 | 0.00582 KA relative to UGCAUGU |
| B2 | 0.0101 KA relative to UGCAUGU |
| B3 | 0.0186 KA relative to UGCAUGU |
| B4 | 0.00579 KA relative to UGCAUGU |
| B5 | 0.0108 KA relative to UGCAUGU |
| B6 | 0.0105 KA relative to UGCAUGU |
| B7 | 0.0153 KA relative to UGCAUGU |
| B8 | 0.0217 KA relative to UGCAUGU |
| B9 | 0.0261 KA relative to UGCAUGU |
| B10 | 0.00549 KA relative to UGCAUGU |
| B11 | 0.000338 KA relative to UGCAUGU |
| B12 | 0.0122 KA relative to UGCAUGU |
| B13 | 0.000275 KA relative to UGCAUGU |
| B14 | 0.00107 KA relative to UGCAUGU |
| B15 | 0.0184 KA relative to UGCAUGU |
| B16 | 0.0157 KA relative to UGCAUGU |

| Binder | binding signal |
| --- | --- |
| B17 | 0.00461 KA relative to UGCAUGU |
| B18 | 0.00526 KA relative to UGCAUGU |
| B19 | 0.00851 KA relative to UGCAUGU |
| B20 | 0.00487 KA relative to UGCAUGU |
| B21 | 0.00586 KA relative to UGCAUGU |
| B22 | 0.0167 KA relative to UGCAUGU |
| B23 | 0.0192 KA relative to UGCAUGU |
| B24 | 0.0112 KA relative to UGCAUGU |
| B25 | 0.00733 KA relative to UGCAUGU |
| B26 | 0.00747 KA relative to UGCAUGU |
| B27 | 0.0117 KA relative to UGCAUGU |
| B28 | 0.0173 KA relative to UGCAUGU |
| B29 | 0.00687 KA relative to UGCAUGU |
| B30 | 0.0116 KA relative to UGCAUGU |
| B31 | 0.00451 KA relative to UGCAUGU |
